# PubChem BioAssay (NCI)
# More than one record can exist for a structure, and the calls need not agree.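 A percent growth of 40 corresponds to 60% growth inhibition; 0 means no net growth; -100 means all cells died. Active threshold: below 10.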 Certain results were filed several times, with different values. The other results are left out here. The source may hold further records. The screen tested this drug many times, at the concentration stated with the values; one value stands for one run. Marks such as (2×) give the number of equal values in this list.
# System: LOX IMVI melanoma
# Experiment: NCI-60 one-dose screen, 48 h (100 = growth as untreated, 0 = no growth, -100 = all killed)
smiles,measurement,setting,value
COc1cccc2c1C(=O)c1c(O)c3c(c(O)c1C2=O)C[C@@](O)(C(=O)CO)C[C@@H]3OC1CC(N)C(O)C(C)O1 (stereo not given in full),growth,"0.25 µM, runs of 2018","inactive: 20.8, 18 (3×), 19.7 (2×), 20, 24.3, 17.9, 13.3 (2×), 18.3, 20.6, 25, 28.9, 22.1, 27, 18.1, 11.5, 12, 16.2 (2×), 26.7, 25.7, 20.9, 24 (2×), 15.7, 21.1, 28.3, 17.8, 26.1, 22.8, 34.6, 32, 16.6, 27.1, 13.9, 13.4, 27.8, 22.5, 20.4, 18.9, 25.2, 31.2, 36.1% and active: 5.95%"
same,growth,"0.25 µM, runs of 2019","active: -0.554, -0.752, 8.37, 4.48, 6.24, 0.235, 8.51, 9.68, 3.18, 6.06% and inactive: 13.2, 10.1, 13.9, 22, 20.6, 14.6, 22.3 (2×), 13.3, 14.1, 14.7, 10.5 (2×), 12.2, 11, 11.1, 13.8, 10.4, 19, 18.5, 10.6, 20.4, 21.1, 19.2, 16, 12.4, 16.8, 26.9, 16.2, 30, 18.1, 10.3, 16.4, 19.3, 20%"
same,growth,"0.25 µM, runs of 2020","active: 9.29, 9.46, 5.3, 9.12, 8.46% and inactive: 19.4, 15, 12.6 (2×), 14.6, 12.9, 10.8, 10.6, 19.9, 12, 14.4, 22.6, 18.8, 14.7, 23.1, 26.9, 20%"
same,growth,"0.25 µM, runs of 2021","inactive: 10.9, 22.4, 15.7, 16.5, 16.4, 13.3, 14.1 (2×), 12.7, 12, 12.5, 11.2, 10.2, 10.6, 11.5, 13.6, 12.3, 12.8% and active: 2.56, 2.85, 4.19, 2.25, -4.73, 9.67, 3.26, 6.69, 7.5, 4.57, 5.88, 9.24, 0.211, 0.344, 4.14, 8.48, 0.456, 4.91, 5.15, 3.33, 7.85, 1.08, -4.9, 8.76, 7.3, -26.4, -52, -5.61, 8%"
same,growth,"0.25 µM, runs of 2022","active: -61.6, -64.3, -66.4, -26.4, 9.99, -0.243, 9.48, 5.24, 9.91, 4.72, 0.283, 7.93, 2.59, 6.65% and inactive: 15, 16.2, 20.4, 15.7, 27.8, 25.9, 13, 34.2, 27.3, 52.6, 11.6%"
same,growth,"25 µM, runs of 1991","active: -56.1, -51.1, -50.2, -51.8, -66.9, -48.6, -33.2, -36.6, -20.8, -42.2, -20.5, -44.1, -72.9, -67.1, -76.6, -75.5, -77.3%"
same,growth,"25 µM, runs of 1992","active: -55, -34.4, -67.6 (2×), -63.1, -64, -76.3, -49.4, -46.9, -77.5 (2×), -72.5, -29, -58.9, -33.3 (2×), -38.5, -62.6 (2×), -80.8, -48.3, -100, -43.7, -50.3, -83.4, -54.6, 3.94, -67.7, -32, 5.38, -85, -93.2, -67.4, -73.9, -77.8, -43.8, -76, -76.9, -58, -83 (2×), -67.8, -78.7, -42.7, -23.2, -4.64, -27.9, -4.81, -58.8 (2×), -76.8, -79.8, -55.1, -82.8, -78.6, -40.8, -69.4, -83.2, -30.7, -39.2, -46.4, -62.8, -62.9, -57.7, -38.3, -87.8, -70.8 (2×), -54.9, -82.7, -68.7, -73.4 (2×), -37.8, -80.7, -60.9, -69.9, -64.7, -59.1, -82.4, -67.2, -63.7, -76.7, -91, -69.8, -72.6, -31.5, -54.4, -73.1, -60.4, -80.1, -74.7, -89.1, -81.8, -85.6, -72.8, -64.3, -77.6, -86.5, -74.8, -52.2, -79.5, -54.2, -89.8, -86.9, -81.5, -61.5, -60.1, -59.7, -39.6, -49.3, -78.5, -68.8, -65.3, -75.3%"
same,growth,"25 µM, runs of 1993","active: -66, -82.3, -50.8, -46.1, -75.3, -80.7, -41.5, -78, -72.7, -86.7, -63.1, -10.3, 1.17, -87.1, -82.2, -77, -56.4, -35.8, -68.6, -64.7, -35.7, -23.2, -92.8, -71.7, -71, -67.9, -77.8, -37.5, -22.5, -45.9, -78.1, -23.5, -51.5, -26, -53, -7.69, -82.4%"
same,growth,"25 µM, runs of 1994","active: -41.4, -49.7, -34.5, -37.4, -78.1, -34.1, -72.7, -86.1, -70.4, -1.52, -38.8, -46.7, -21.3, -82.1, -51.1, -24, -48.3, -69.7, -69.3, -50.4, 4.55, -39, -77, -75.2, -80.9, -71.9, -100% and inactive: 77.2%, 11.4%, 91.2%"
same,growth,"25 µM, runs of 1995","active: -58.2, -53.7, -48.2, -51.9, -86.7, -89.5, -67, -60.7, -56.9 (2×), -48.8, -72.3, -94.4, -80.9, -86.9, -73.4, -55.1, -27.1, -93.9, -49.9, -45.1, -13.5, -35.3, -13.1, -56.2, -42.1, -54.9, -65.6, -61.3, -18, -71.4, -32.6, -49.5, -17.3%"
same,growth,"25 µM, runs of 1996","active: -38.5, -48.8, -15.2, -21.6, -73.9, -27.5, 1.66, -15.5, 2.17, 4.29, -4.79, -46.3, 6.07, -31, -35.9, -41.6, 2.47, -63.7, -44.1, -73.3, -52.5 (2×), -54.5, -65.2 (2×), -61.7 (2×), -44.8, -85.5, -61.1 (2×), -61.4, -38.8, -31.4, 0.573, -53.6, -42.7, -31.6, -41.2, -27, -47.5, -63.1, -48.9, 5.75, -64.7, -70, -42.4, 3.78, -68.5, -39.7, -48.2, -37% and inactive: 92.4%, 39.2%"
same,growth,"25 µM, runs of 1997","active: -50, 1.34, -40.2, -55.7, 0.898, -49.2, -25.4, -18.8, -48.9, -34.3, -50.5, -19, -66.9, -52.5, -31.1, -20.1, -51.6, -42.7, -16.5, -23.4, -64.8, -78.4, -67.1, -32.6, -17.1, -48.3, -46.1, -2.75, -60.8, -66, -74.8% and inactive: 16.7%, 15.3%, 13.6%"
same,growth,"25 µM, runs of 1998","active: -68.1, -12.2, -55.9, 2.75, -27.8, -39.5, -84.9, -56.2, -50.3, -50.7 (2×), -43.9, 0.618, -67.3, -68.6, -74.2, -80.4, -36.2, -2.85, -70.4, -27.9, -5.14% and inactive: 10.3%"
same,growth,"25 µM, runs of 1999","active: -100 (3×), -78.8, -24, -45.1, -31.6, -76.8, 0.276, -73.5, 2.84, -32.5, 2.66, -73.8, 0.562, -9.22, 0.05%"
same,growth,"25 µM, runs of 2000","active: -75.9%, -100%, -39.8%"
